Our source for the antibody binding signal values is the supplement of paper PMC10441789.

Some of the results follow. Antibody binding of pooled human sera (four to six donors per pool; dilution not stated) to peptides of the Trypanosoma cruzi antigen TSSA on microarrays. Quantile-normalised fluorescence in arbitrary units, mean of duplicate arrays; higher = more binding. No active / inactive call. The uninfected pools are read here as the healthy donors of the same country. The strongest signals lie near the top of the scale (about 60,000).

For the first assay, the system named is pooled sera of chronic Chagas disease patients, Mexico. As to the kind of experiment: antibody binding signal (normalised fluorescence) (arbitrary fluorescence units); higher = stronger serum antibody binding to peptide. How it is done: (§1)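 Microarray of 15-residue peptides over residues 30-55 of Trypanosoma cruzi TSSAII, each with 1 to 10 substitutions at naturally variable positions, probed with one serum pool per country.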
In turn, GTEKKAATGGAPSPS registered an antibody binding signal of 3400.
The same measure, in the same setting: under TDNKAAAGEAPSPSG stands 146; under GTEKKAATGGTPSPP, 1720; under EKKAAAGETPSPSGA, 324.
Sequence PPSGKDKKTATGETP came in with an antibody binding signal of 15400.
STPPSGTENKTAAGE registered an antibody binding signal of 4100.
STPPSGKDNKAATGG came in with an antibody binding signal of 36300.
The sequence KDNKTATGGTPSPSG displayed an antibody binding signal of 242.
SGKENKPAAGGAPSP showed an antibody binding signal of 5270.
For the sequence PPSGKDKKTATGGAP, the antibody binding signal is 30500.
TPPSGKENKTAAGET came in with an antibody binding signal of 2150.
As for DKKPAAGETPSQSGA, the antibody binding signal is 233.
For the sequence GTDNKAATGETPSQP, the antibody binding signal amounted to 207.
Consider KKPAAGETPSQPGAS, for which the antibody binding signal came out at 148.
On the same count and under the same terms, the result for PPSGTDKKPAAGEAP reads 45900; that for KEKKPATGETPSQSG, 202; that for ENKPAAGGAPSQPGA, 417.
On to GKEKKAAAGEAPSPS, for which the antibody binding signal worked out at 7280.
KENKPATGGAPSPPG registered an antibody binding signal of 709.
Take SGKDNKAAAGGTPSQ: the antibody binding signal worked out at 1080.
For TENKAAAGGTPSQPG, the antibody binding signal is 347.
Turning to GKDKKTATGGAPSQS, the antibody binding signal was determined as 1630.
The sequence ENKAAAGGTPSPSGA had an antibody binding signal of 318.
EKKTAAGGAPSQPGA had an antibody binding signal of 605.
Turning to SGTEKKAATGETPSP, the antibody binding signal was 451.
In turn, DKKPAAGGAPSPSGA gave an antibody binding signal of 346.
Sequence ENKAAAGGAPSPPGA showed an antibody binding signal of 334.
KDNKAAAGGTPSPSG showed an antibody binding signal of 169.
Turning to PSGKENKAATGEAPS, the antibody binding signal came out at 6910.
With TPPSGTENKPATGET, the antibody binding signal was determined as 5840.
Take KKPAAGGAPSQSGAS: the antibody binding signal amounted to 288.
For the sequence STPPSGKEKKAATGG, the antibody binding signal is 9930.
On to GKDKKPATGEAPSQP, for which the antibody binding signal came out at 1940.
Sequence STPPSGTDKKPATGG came in with an antibody binding signal of 42000.
Same read-out and setting: under DKKAAAGGTPSQSGA stands 381; under GKENKAATGGAPSPP, 13000; under PPSGTDNKPATGETP, 4950.
Still for that read-out and setting: under KDKKTATGETPSPPG stands 223.
Take TDKKTATGGAPSQPG: the antibody binding signal worked out at 827.
NKPAAGGTPSPSGAS returned an antibody binding signal of 606.

The subject of another assay is pooled sera of chronic Chagas disease patients, USA. The assay is described as above. How it is done:
as §1
For the sequence GTEKKAATGGAPSPS, the antibody binding signal came out at 2350.
TDNKAAAGEAPSPSG came in with an antibody binding signal of 13200.
Turning to GTEKKAATGGTPSPP, the antibody binding signal turned out to be 1710.
Consider EKKAAAGETPSPSGA, for which the antibody binding signal is 4190.
Same read-out and setting: under PPSGKDKKTATGETP stands 3620; under STPPSGTENKTAAGE, 35300.
Same read-out and setting: the result for STPPSGKDNKAATGG reads 3270; that for KDNKTATGGTPSPSG, 491.
SGKENKPAAGGAPSP registered an antibody binding signal of 18900.
On to PPSGKDKKTATGGAP, for which the antibody binding signal was found to be 1510.
TPPSGKENKTAAGET: the antibody binding signal stood at 2240.
Turning to DKKPAAGETPSQSGA, the antibody binding signal turned out to be 1580.
As to GTDNKAATGETPSQP, the antibody binding signal worked out at 13100.
Regarding KKPAAGETPSQPGAS, the antibody binding signal was 955.
Turning to PPSGTDKKPAAGEAP, the antibody binding signal was determined as 13700.
The sequence KEKKPATGETPSQSG registered an antibody binding signal of 18700.
Turning to ENKPAAGGAPSQPGA, the antibody binding signal worked out at 2560.
As to GKEKKAAAGEAPSPS, the antibody binding signal turned out to be 9570.
In turn, KENKPATGGAPSPPG returned an antibody binding signal of 2920.
Turning to SGKDNKAAAGGTPSQ, the antibody binding signal turned out to be 1700.
Regarding TENKAAAGGTPSQPG, the antibody binding signal was 2110.
GKDKKTATGGAPSQS returned an antibody binding signal of 1400.
The sequence ENKAAAGGTPSPSGA showed an antibody binding signal of 1240.
Same read-out and setting: the result for EKKTAAGGAPSQPGA reads 689.
The sequence SGTEKKAATGETPSP returned an antibody binding signal of 12400.
In the case of DKKPAAGGAPSPSGA, the antibody binding signal was 934.
ENKAAAGGAPSPPGA had an antibody binding signal of 1170.
On to KDNKAAAGGTPSPSG, for which the antibody binding signal was 896.
Same read-out and setting: the result for PSGKENKAATGEAPS reads 32000; that for TPPSGTENKPATGET, 27900.
The same measure, in the same setting: under KKPAAGGAPSQSGAS stands 185.
As for STPPSGKEKKAATGG, the antibody binding signal worked out at 1270.
Sequence GKDKKPATGEAPSQP had an antibody binding signal of 30200.
Take STPPSGTDKKPATGG: the antibody binding signal turned out to be 17100.
As for DKKAAAGGTPSQSGA, the antibody binding signal is 1470.
Turning to GKENKAATGGAPSPP, the antibody binding signal was 20700.
Still for that read-out and setting: the result for PPSGTDNKPATGETP reads 24500; that for KDKKTATGETPSPPG, 3480; that for TDKKTATGGAPSQPG, 506.
On the same count and under the same terms, under NKPAAGGTPSPSGAS stands 320.

Another assay relates to pooled sera of uninfected people, Argentina. Described as above. How it is done: as §1
On to GTEKKAATGGAPSPS, for which the antibody binding signal was 398.
TDNKAAAGEAPSPSG had an antibody binding signal of 110.
Still for that read-out and setting: the result for GTEKKAATGGTPSPP reads 260; that for EKKAAAGETPSPSGA, 200.
On the same count and under the same terms, the result for PPSGKDKKTATGETP reads 364; that for STPPSGTENKTAAGE, 3560; that for STPPSGKDNKAATGG, 298.
KDNKTATGGTPSPSG: the antibody binding signal is 319.
On to SGKENKPAAGGAPSP, for which the antibody binding signal turned out to be 7600.
PPSGKDKKTATGGAP had an antibody binding signal of 274.
Turning to TPPSGKENKTAAGET, the antibody binding signal was determined as 1700.
Same read-out and setting: under DKKPAAGETPSQSGA stands 92.2; under GTDNKAATGETPSQP, 115; under KKPAAGETPSQPGAS, 315.
Sequence PPSGTDKKPAAGEAP registered an antibody binding signal of 534.
As for KEKKPATGETPSQSG, the antibody binding signal was 229.
Still for that read-out and setting: the result for ENKPAAGGAPSQPGA reads 326; that for GKEKKAAAGEAPSPS, 179.
For KENKPATGGAPSPPG, the antibody binding signal stood at 373.
Same read-out and setting: under SGKDNKAAAGGTPSQ stands 163; under TENKAAAGGTPSQPG, 330.
Sequence GKDKKTATGGAPSQS returned an antibody binding signal of 215.
Take ENKAAAGGTPSPSGA: the antibody binding signal turned out to be 193.
Still for that read-out and setting: the result for EKKTAAGGAPSQPGA reads 206; that for SGTEKKAATGETPSP, 385; that for DKKPAAGGAPSPSGA, 312.
The sequence ENKAAAGGAPSPPGA came in with an antibody binding signal of 274.
KDNKAAAGGTPSPSG: the antibody binding signal came out at 168.
On the same count and under the same terms, under PSGKENKAATGEAPS stands 7320.
Still for that read-out and setting: under TPPSGTENKPATGET stands 9360; under KKPAAGGAPSQSGAS, 226.
Sequence STPPSGKEKKAATGG had an antibody binding signal of 258.
In turn, GKDKKPATGEAPSQP yielded an antibody binding signal of 749.
On the same count and under the same terms, under STPPSGTDKKPATGG stands 1510.
With DKKAAAGGTPSQSGA, the antibody binding signal was found to be 133.
Regarding GKENKAATGGAPSPP, the antibody binding signal turned out to be 542.
Take PPSGTDNKPATGETP: the antibody binding signal amounted to 722.
For the sequence KDKKTATGETPSPPG, the antibody binding signal was 252.
Same read-out and setting: the result for TDKKTATGGAPSQPG reads 320; that for NKPAAGGTPSPSGAS, 609.
